Data: PubChem BioAssay AID1030 (National Center for Advancing Translational Sciences (NCATS), 2008)
Screen size: about 220,000 compounds; about 16,000 (7.3%) were called active. Inconclusive results, whose numbers are uncertain, are shown with a selection of clear calls. The call rests on the fitted dose curve; in most records, active means well fitted inhibition curve with a large enough effect (not every such curve was filed as active); inconclusive means small, poorly fitted or top-dose-only effect, or another doubt; inactive means no such curve, though single readings can be large or run the other way. No potency is given beside an inconclusive call; the fits are too rough.
Potency means the concentration at half of the fitted maximal effect; tags describe the fitted curve by direction and shape.
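Wherever activity, negative = inhibition is given: plate controls were no enzyme wells and a reference inhibitor.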

These molecules were tested against Aldehyde dehydrogenase 1A1 (Homo sapiens) (UniProt P00352) (assay: qHTS Assay for Inhibitors of Aldehyde Dehydrogenase 1 (ALDH1A1)). Details: Purified ALDH1A1, NADH fluorescence, propionaldehyde substrate; series mostly up to 75.3 µM; activity, negative = inhibition: at the top concentration.
Chain of UniProt P00352 (P00352 whole entry, looked up): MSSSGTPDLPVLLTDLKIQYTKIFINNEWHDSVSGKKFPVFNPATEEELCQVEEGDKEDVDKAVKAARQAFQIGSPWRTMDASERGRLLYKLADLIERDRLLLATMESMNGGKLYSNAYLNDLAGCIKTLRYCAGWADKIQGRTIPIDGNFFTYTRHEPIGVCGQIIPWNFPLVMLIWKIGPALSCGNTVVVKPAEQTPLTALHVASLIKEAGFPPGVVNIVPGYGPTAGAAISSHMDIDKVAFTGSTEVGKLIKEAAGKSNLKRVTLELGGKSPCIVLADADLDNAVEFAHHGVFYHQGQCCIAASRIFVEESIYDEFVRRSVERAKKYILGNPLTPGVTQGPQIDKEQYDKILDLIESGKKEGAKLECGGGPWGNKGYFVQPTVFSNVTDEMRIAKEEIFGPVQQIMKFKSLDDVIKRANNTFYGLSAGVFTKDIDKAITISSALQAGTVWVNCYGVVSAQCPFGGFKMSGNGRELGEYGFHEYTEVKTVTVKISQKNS
For Cc1cccc(OCCc2c(C)[nH]c(=S)[nH]c2=O)c1, the Potency was active: 17.8 µM. Cc1cccnc1NC(=O)Cn1nc(-c2ccccc2)oc1=S was tested, and the “activity, negative = inhibition” value was inactive: -14.2%. In the case of CCOc1ccc(NC(=O)CN(C)CC(=O)Nc2ccccc2C#N)cc1OCC, the Potency is reported as inconclusive [inhibitor, single point]. CCCn1c(=O)c2ccccc2n2c(SCC(=O)/C(C#N)=C(\C)N)nnc12 was tested, and the “activity, negative = inhibition” value was inactive: 1.09%. COc1ccc2c(=O)c3c(=O)n(Cc4ccco4)c(-c4ccccc4)nc3oc2c1 was tested, and the Potency was active: 22.4 µM. In the case of CN(C)c1ncc2nc(-c3ccc(F)cc3)c(=O)n(-c3ccccc3)c2n1, the Potency is reported as inconclusive [inhibitor, full curve]. In the case of c1ccc(CNc2ncnc3ccc(-c4ccoc4)cc23)cc1, the Potency is reported as inconclusive [inhibitor, partial curve]. In the case of CC(=O)N1CN(Cc2ccccn2)Cc2c1sc1c2CCCC1, the Potency is reported as inconclusive [inhibitor, single point]. With Cc1sc(NC(=O)c2ccccc2)c(C(c2ccc(Cl)cc2)N2CCN(CCO)CC2)c1C (stereo not given) the Potency was inconclusive [inhibitor, single point]. COc1cccc(CC(NC(C)=O)C(=O)NC2CCN(c3c4c(nc5ncnn35)CCC4)CC2)c1OC (stereo not given) was tested, and the Potency was inconclusive [inhibitor, single point]. Nn1c(SCC(=O)Nc2ccc(S(=O)(=O)N3CCCC3)cc2)nnc1C(F)(F)F was tested, and the Potency was inconclusive [inhibitor, single point]. Cc1cc([N+](=O)[O-])nn1CCCC(=O)O was tested, and the “activity, negative = inhibition” value was inactive: -8.22%. With CC1(C)CC(=O)C/C(=N\NC(=O)CCc2ccc(S(=O)(=O)N3CCOCC3)cc2)C1 the Potency was inconclusive [inhibitor, single point]. COCCNC(=O)CSc1nc2ccccc2c(=O)n1CCC(=O)NCCc1ccc(OC)c(OC)c1 was tested, and the Potency was active: 14.1 µM. In the case of Cc1cccc(C(=O)NCc2nnc3c4ccccc4c(-c4ccccc4)nn23)c1, the “activity, negative = inhibition” value is reported as inactive: -9.56%. For O=C1CN(C(=O)COC(=O)c2ccccc2NCc2ccco2)c2ccccc2N1, the Potency was inconclusive [inhibitor, partial curve]. With N#CCc1c(C#N)c(N)nc(N2CCN(C=O)CC2)c1C#N the Potency was active: 7.08 µM. For CCOc1cc(NC(=O)C2CCCO2)c(OCC)cc1NC(=O)C1CC1 (stereo not given), the Potency was inconclusive [inhibitor, partial curve]. Nc1cc(Cl)ccc1C(=O)OCC(=O)NC1CCS(=O)(=O)C1 (stereo not given) was tested, and the Potency was inconclusive [inhibitor, partial curve]. CCCC12CN3CCN(CC(C3)/C1=N\NC(=O)c1ccccc1N)C2 was tested, and the Potency was inconclusive [inhibitor, partial curve]. In the case of Cc1cccc(C(=O)NC(=S)Nc2ccc(Cc3ccncc3)cc2)c1, the Potency is reported as active: 20 µM. Cc1cccc2cc(CN(Cc3cccs3)Cc3nnnn3Cc3ccccc3)c(=O)[nH]c12 was tested, and the Potency was active: 2.82 µM. In the case of CC1(C)CC2CC(C)(CN2S(=O)(=O)c2ccc(N)cc2)C1 (stereo not given), the Potency is reported as inconclusive [inhibitor, single point]. With COc1ccc(N(Cc2cc3ccccc3[nH]c2=O)C(=O)C2CCCO2)cc1 (stereo not given) the Potency was inconclusive [inhibitor, partial curve]. With O=C(NCCN1C(=O)S/C(=C/c2ccccc2)C1=O)C1CCCN1C(=O)c1cccs1 (stereo not given) the “activity, negative = inhibition” value was inactive: -8.95%. With Cc1oc(C(C)(C)C)cc1C(=O)Nc1ccc(C(=O)O)cc1 the “activity, negative = inhibition” value was inactive: 2.99%. COc1ccc(CCNC(=O)CCC(=O)Nc2ccc3nc(N4CCN(C)CC4)cc(C)c3c2)cc1OC was tested, and the Potency was inconclusive [inhibitor, single point]. O=C(NCc1ccncc1)C1=NN(c2ccccc2)C(=O)CC1 was tested, and the Potency was inconclusive [inhibitor, single point]. N#Cc1cccc(N=c2ssnc2Cl)c1 was tested, and the Potency was active: 1.26 µM. CC1CCCN(C(=O)CCCn2c(=S)[nH]c3ccccc3c2=O)C1 (stereo not given) was tested, and the Potency was active: 17.8 µM. CCOC(=O)c1sc(=S)n(-c2ccc(Cl)cc2)c1SC was tested, and the “activity, negative = inhibition” value was inactive: -16.4%. In the case of CC1Cc2ccccc2N1C(=O)CSc1nn2c(=O)c(C(C)(C)C)nnc2s1 (stereo not given), the Potency is reported as inconclusive [inhibitor, single point]. In the case of Cc1ccc(-n2cc[nH]c2=S)c(C)c1, the Potency is reported as inconclusive [inhibitor, single point]. O=C(CSc1nnc(C2CC2)n1Cc1ccccc1)N1CCN(S(=O)(=O)c2ccccc2)CC1 was tested, and the “activity, negative = inhibition” value was inactive: -4.49%. In the case of COC(=O)c1ccc(CSc2nnnn2-c2ccc(C)cc2C)o1, the Potency is reported as inconclusive [inhibitor, single point]. With O=S(=O)(c1cccs1)N1CCC(CO)(Cc2cccc(F)c2)CC1 the Potency was inconclusive [inhibitor, partial curve]. Cc1ccc2nc(-c3ccc(N4C(=NC(=O)CCC(=O)O)SC5CS(=O)(=O)CC54)cc3)sc2c1 (stereo not given) was tested, and the Potency was inconclusive [inhibitor, partial curve]. Cc1cc(C)n2nc(S(=O)(=O)NCCc3ccccc3)nc2n1 was tested, and the Potency was inconclusive [inhibitor, partial curve]. For O=C(CCC1CCCN(C(=O)c2ccc3c(c2)OCO3)C1)N1CCN(c2ccccn2)CC1 (stereo not given), the Potency was inconclusive [inhibitor, single point]. For Cc1ccc2cc3cc(C(=O)N4CCCCC4C)oc3nc2c1 (stereo not given), the Potency was inconclusive [inhibitor, single point]. With Cc1ccccc1N1CCN(C(=O)c2ccccc2NC(=O)c2ccccc2C(=O)O)CC1 the “activity, negative = inhibition” value was inactive: -5.26%. CC(C)CCn1c(=O)c2ccccc2n2c(CN3C(=O)NC4(CCC(C)CC4)C3=O)nnc12 (stereo not given) was tested, and the Potency was inconclusive [inhibitor, full curve]. Cc1c(NC(=O)c2c(NC(=O)CNC3CC3)sc3c2CCCC3)c(=O)n(-c2ccccc2)n1C was tested, and the Potency was inconclusive [inhibitor, single point]. With Cc1cc(O)c(C(C)C)cc1NC(=O)c1ccccc1Cl the Potency was inconclusive [inhibitor, partial curve]. With O=C1C2=C(Nc3cc([N+](=O)[O-])ccc3N2)O[C@@H]1c1ccc([C@H]2OC3=C(Nc4ccc([N+](=O)[O-])cc4N3)C2=O)cc1 the Potency was inconclusive [inhibitor, single point]. O=C(NCN1C(=O)C2C3C=CC(C3)C2C1=O)Nc1ccccn1 (stereo not given) was tested, and the Potency was inconclusive [inhibitor, partial curve]. For Clc1ccc(-n2ncc3c(N4CCCC4)ncnc32)cc1, the Potency was inconclusive [inhibitor, single point]. COc1ccc(CNC(=O)C2CCCN(Cc3nc(-c4cccc(C)c4)oc3C)C2)cc1 (stereo not given) was tested, and the Potency was inconclusive [inhibitor, single point]. With CCc1ccc(NC(=O)c2cc(-c3ccc(OC)cc3)on2)cc1 the Potency was inconclusive [inhibitor, single point]. For C=CCNC(=O)c1onc(CSc2cccc(OC)c2)c1C(=O)O, the “activity, negative = inhibition” value was inactive: -0.853%. For COc1ccc(NC2=C(Cl)C(=O)N(c3ccccc3)C2=O)c(OC)c1, the Potency was inconclusive [inhibitor, single point]. C=CCn1c(SCc2cc(C(=O)OC)c(C)o2)nnc1-c1ccncc1 was tested, and the Potency was inconclusive [inhibitor, single point]. In the case of CSCCC(=O)N1CCCC(CNC(=O)c2ccccc2Cl)C1 (stereo not given), the “activity, negative = inhibition” value is reported as inactive: 5.62%. In the case of O=C(CN1CCOCC1)N1CCc2ccccc2C(c2ccccc2)C1 (stereo not given), the Potency is reported as active: 14.1 µM. COc1ccc(CN2CCCCC2C(=O)Nc2ccc(OC)c(OC)c2)cc1OC (stereo not given) was tested, and the “activity, negative = inhibition” value was inactive: 0.901%. With O=C(c1ccc(OC2CCN(CCc3ccccc3)CC2)cc1)N1CCCC(CO)C1 (stereo not given) the “activity, negative = inhibition” value was inactive: 2%. In the case of CCOC(=O)c1c(C)n(-c2ccc(C)cc2)c2ccc(OCC(O)CNCC3CCCO3)cc12 (stereo not given), the Potency is reported as inconclusive [inhibitor, partial curve]. For Cc1ccc(N2C(=O)C3CC(c4ccccc4)=C4C5C=CC(C6C(=O)N(c7ccc(C)cc7)C(=O)C56)C4C3C2=O)cc1 (stereo not given), the Potency was active: 1.12 µM. CCN(CC)CCN1C(=O)C(O)=C(C(=O)c2sc(C)nc2C)C1c1cccnc1 (stereo not given) was tested, and the Potency was inconclusive [inhibitor, single point]. With O=C(COc1ncnc2c(Cl)cc(Cl)cc12)N1CCN(S(=O)(=O)c2ccccc2)CC1 the Potency was inconclusive [inhibitor, single point]. With O=C(CCc1nc2ccccc2s1)OCC(=O)c1ccccc1 the Potency was inconclusive [inhibitor, single point]. For Cc1ccc(C)c(N2CCN(C(=O)CCn3c(=S)[nH]c4cc5c(cc4c3=O)OCO5)CC2)c1, the “activity, negative = inhibition” value was inactive: 5.01%. CCC(Oc1ccccc1)C(=O)NCCOC (stereo not given) was tested, and the “activity, negative = inhibition” value was inactive: -8.33%. For O=[N+]([O-])c1cc(C=Nc2ccc3ccccc3c2)ccc1Br, the Potency was inconclusive [inhibitor, single point]. In the case of CCCNC(=O)COC(=O)c1ccc(Cl)c(S(=O)(=O)N2CCCC2)c1, the Potency is reported as active: 7.94 µM. In the case of CCN(CC)c1ccc(/C=C(/C#N)C(=O)NCc2ccccc2)o1, the Potency is reported as active: 2.82 µM. For C[C@H]1Cc2c(COc3ccccc3)nc3c(c2CO1)CN(S(=O)(=O)c1ccc(Cl)c2nonc12)CC3, the Potency was inconclusive [inhibitor, partial curve]. With O=C(N/N=C/c1ccc(N2CCOCC2)s1)c1ccccc1Cl the Potency was active: 15.8 µM. CCc1ccc(C(=O)COC(=O)c2ccc(-c3nnc(-c4ccccc4)o3)cc2)cc1 was tested, and the “activity, negative = inhibition” value was inactive: 11.9%. In the case of CC(C)(C)C1=Nn2c(nnc2C2CCCCC2)SC1, the Potency is reported as inconclusive [inhibitor, single point].
